{"source": "the RNAGym collection of RNA variant scans (doi:10.7554/elife.90254)", "parents": {"B1": {"name": "LINE1-mini (parent)", "chain": "GGCAGAGCUCAACACAGCGUGGCAAAGUGGCUGUGGCUAGACUGCC"}}, "note": "Read counts are not given, so values of variants with three or more changes are uncertain."}
{"variants_of": "B1", "assay": "self-cleavage, relative activity (ratio to wild type); higher = more cleavage; in vitro, sequencing; the parent is a self-cleaving ribozyme"}
{"variant": "G2U G5U A12G C15U", "self-cleavage": 0.02}
{"variant": "G2U C13U C23G G27A", "self-cleavage": 0.01}
{"variant": "G2U C23A C46G", "self-cleavage": 0.04}
{"variant": "G2U C18G A25U C31G", "self-cleavage": 0}
{"variant": "G2U C10G U20A A24U U34G C46G", "self-cleavage": 0}
{"variant": "G2U C31A C46G", "self-cleavage": 0.01}
{"variant": "G2U C10U C18G U20G", "self-cleavage": 0}
{"variant": "G2U C13A G22U", "self-cleavage": 0.01}
{"variant": "G2U C3A U9G C15U", "self-cleavage": 0.41}
{"variant": "G2U G17U U32A", "self-cleavage": 0.01}
{"variant": "G2U G5C G7U U20A", "self-cleavage": 0.02}
{"variant": "G2U C15U G27A A41U", "self-cleavage": 0.04}
{"variant": "G2U C3U U9C A24C G27C C37U A39G", "self-cleavage": 0.01}
{"variant": "G2U C10A G21U G30C", "self-cleavage": 0.02}
{"variant": "G2U C18U G19A G35U", "self-cleavage": 0.05}
{"variant": "G2U C23A C31A G33U A39G A41C", "self-cleavage": 0.05}
{"variant": "G2U C31U U32A", "self-cleavage": 0.02}
{"variant": "G2U A26U G44C", "self-cleavage": 0.02}
{"variant": "G2U C3A U20A C31A U34C", "self-cleavage": 0.07}
{"variant": "G2U C10A A11C U28C A39G", "self-cleavage": 0.01}
{"variant": "G2U C18A G21U U34C", "self-cleavage": 0.04}
{"variant": "G2U C3A A16C G35U", "self-cleavage": 0.04}
{"variant": "G2U C3A A4G C15A", "self-cleavage": 0}
{"variant": "G2U C8U A14C G22C", "self-cleavage": 0.04}
{"variant": "G2U C3G G17A C23U C31A G33A", "self-cleavage": 0.03}
{"variant": "G2U C3U A4U G19C A25C U28A U38C", "self-cleavage": 0.01}
{"variant": "G2U G7U C8A U9A A24U A26G", "self-cleavage": 0.06}
{"variant": "G2U C13A A16G G17C", "self-cleavage": 0.06}
{"variant": "G2U C23U G33C", "self-cleavage": 0.03}
{"variant": "G2U C3G G7A A12C G44U", "self-cleavage": 0.02}
{"variant": "G2U C8U G44A", "self-cleavage": 0.09}
{"variant": "G2U C10G G30U U43C", "self-cleavage": 0.02}
{"variant": "G2U G21U U38A", "self-cleavage": 0.08}
{"variant": "G2U C15A U34G G40U C45U", "self-cleavage": 0}
{"variant": "G2U G7C C8U C45A", "self-cleavage": 0.02}
{"variant": "G2U C31A U43C", "self-cleavage": 0.03}
{"variant": "G2U C13A G30A", "self-cleavage": 0.04}
{"variant": "G2U G7A C42G", "self-cleavage": 0.04}
{"variant": "G2U G5U G22U G27A A41G C42U", "self-cleavage": 0.05}
{"variant": "G2U C18A C23G C31G U32C C37A", "self-cleavage": 0.02}
{"variant": "G2U G21C C37A", "self-cleavage": 0.02}
{"variant": "G2U C8U C15U C31A C37A U38A", "self-cleavage": 0.1}
{"variant": "G2U G7A A24C U32A", "self-cleavage": 0.01}
{"variant": "G2U C3G A4U C8A G35U", "self-cleavage": 0.06}
{"variant": "G2U C10A A41G C42U", "self-cleavage": 0}
{"variant": "G2U G5U G7U G19A A26U", "self-cleavage": 0.18}
{"variant": "G2U G7C A25G G36U", "self-cleavage": 0.02}
{"variant": "G2U C8U G21C", "self-cleavage": 0.03}
{"variant": "G2U C8U G21U", "self-cleavage": 0.69}
{"variant": "G2U G21A G27U", "self-cleavage": 0.15}
{"variant": "G2U G7A G27U A39C C42G G44A", "self-cleavage": 0.02}
{"variant": "G2U G5U G35U A39C", "self-cleavage": 0.01}
{"variant": "G2U C18A G27U", "self-cleavage": 0.03}
{"variant": "G2U C8G A12U G40A", "self-cleavage": 0.03}
{"variant": "G2U C13A C42A G44U", "self-cleavage": 0.04}
{"variant": "G2U C18G U28C", "self-cleavage": 0.01}
{"variant": "G2U G21A C23A C42U", "self-cleavage": 0.06}
{"variant": "G2U C8U C10G A14C G19C G35C", "self-cleavage": 0}
{"variant": "G2U C8U G30C A41U", "self-cleavage": 0.16}
{"variant": "G2U C3U C10U C31A", "self-cleavage": 0.04}
{"variant": "G2U C10G A16U U20A G21C U34A G36U", "self-cleavage": 0}
{"variant": "G2U C23A A24G U28C G30C A41G U43C", "self-cleavage": 0}
{"variant": "G2U C18A A25U G30A U38C", "self-cleavage": 0.01}
{"variant": "G2U C8A A12G A25U", "self-cleavage": 0.23}
{"variant": "G2U G7U G35U", "self-cleavage": 0.04}
{"variant": "G2U C8G G36C", "self-cleavage": 0.03}
{"variant": "G2U C13G G27A C31U", "self-cleavage": 0.03}
{"variant": "G2U C31G A41C", "self-cleavage": 0.02}
{"variant": "G2U G19A U32G G35A", "self-cleavage": 0.1}
{"variant": "G2U G7U A12C", "self-cleavage": 0.02}
{"variant": "G2U C23G G29A", "self-cleavage": 0.1}
{"variant": "G2U C10G G29C", "self-cleavage": 0.03}
{"variant": "G2U C8A G21C G36U", "self-cleavage": 0.04}
{"variant": "G2U G21C A26U", "self-cleavage": 0.38}
{"variant": "G2U G5A U34A", "self-cleavage": 0.02}
{"variant": "G2U G5U C15U C18A G27C", "self-cleavage": 0.02}
{"variant": "G2U G19U A39C A41G", "self-cleavage": 0.01}
{"variant": "G2U G17A G30A", "self-cleavage": 0.11}
{"variant": "G2U G5U A16U", "self-cleavage": 0.02}
{"variant": "G2U G22A A24U U34A", "self-cleavage": 0.01}
{"variant": "G2U G17A C45U", "self-cleavage": 0.02}
{"variant": "G2U G19U G22U", "self-cleavage": 0.22}
{"variant": "G2U C18U G29U U32C", "self-cleavage": 0.03}
{"variant": "G2U G19C U32G", "self-cleavage": 0.03}
{"variant": "G2U G7A C8A U32A U34A C37G U43A", "self-cleavage": 0.01}
{"variant": "G2U C3A A11G", "self-cleavage": 0.04}
{"variant": "G2U G17A G33A U38A", "self-cleavage": 0.01}
{"variant": "G2U G7U C23U", "self-cleavage": 0.04}
{"variant": "G2U G7A A16U U32G C42A", "self-cleavage": 0.16}
{"variant": "G2U C18A G19A G27U U38G A41U", "self-cleavage": 0.01}
{"variant": "G2U G17C G36C", "self-cleavage": 0.04}
{"variant": "G2U C3U G7C A11C C42U", "self-cleavage": 0.01}
{"variant": "G2U C8U C37A", "self-cleavage": 0.17}
{"variant": "G2U C18A G30U", "self-cleavage": 0.15}
{"variant": "G2U C10A G33C", "self-cleavage": 0.01}
{"variant": "G2U C10A G33A", "self-cleavage": 0.03}
{"variant": "G2U C3U G7U A12U G30A", "self-cleavage": 0.2}
{"variant": "G2U C3A C8U A16U A24U G44C", "self-cleavage": 0.43}
{"variant": "G2U C10A G22U", "self-cleavage": 0.02}
{"variant": "G2U C3A G22A C23A", "self-cleavage": 1.5}
{"variant": "G2U C13A C15U G21U G33A", "self-cleavage": 0.03}
{"variant": "G2U G21U G29C C46A", "self-cleavage": 0.03}
{"variant": "G2U C3G C10G A11G G22A U38A", "self-cleavage": 0.01}
{"variant": "G2U G5C G33A G35C", "self-cleavage": 0.02}
{"variant": "G2U G17C A25C", "self-cleavage": 0.02}
{"variant": "G2U G21C G27U C31G", "self-cleavage": 0.02}
{"variant": "G2U C8G A24C C45G", "self-cleavage": 0.01}
{"variant": "G2U C15A A24C A25C U43C", "self-cleavage": 0}
{"variant": "G2U G5U G29U G30A", "self-cleavage": 0.04}
{"variant": "G2U C3A G21A A25G C37U", "self-cleavage": 0.59}
{"variant": "G2U G17U A25G G44U", "self-cleavage": 0.01}
{"variant": "G2U C3A U32A C37G", "self-cleavage": 0}
{"variant": "G2U G5U G33U", "self-cleavage": 0.01}
{"variant": "G2U G7C C10A G22U C46A", "self-cleavage": 0}
{"variant": "G2U C8A U9G A11G G40C U43C", "self-cleavage": 0.02}
{"variant": "G2U C18A G33U C37A A39C", "self-cleavage": 0}
{"variant": "G2U G5U A14G A41C", "self-cleavage": 0.01}
{"variant": "G2U C18G U43C", "self-cleavage": 0.02}
{"variant": "G2U C3G C8U A14U G27A", "self-cleavage": 0.15}
{"variant": "G2U C3A C18G G19A U32A G40C", "self-cleavage": 0.06}
{"variant": "G2U C3A G7U G29C", "self-cleavage": 0.01}
{"variant": "G2U G5U G7A C37A C42U", "self-cleavage": 0.01}
{"variant": "G2U C3A C45A", "self-cleavage": 0.34}
{"variant": "G2U C8U A14C A16C U34G G40U U43C", "self-cleavage": 0.02}
{"variant": "G2U G19C C23U A41U", "self-cleavage": 0.03}
{"variant": "G2U C8A G27U G33A", "self-cleavage": 0.04}
{"variant": "G2U C23G G30U A41U", "self-cleavage": 0}
{"variant": "G2U G19C G22A G29U", "self-cleavage": 0.05}
{"variant": "G2U C3U A11G A24U A26G G40U C46G", "self-cleavage": 0.02}
{"variant": "G2U C18G G19C G29A G36C", "self-cleavage": 0.08}
{"variant": "G2U G19C C46A", "self-cleavage": 0.04}
{"variant": "G2U G7U C18G G19C", "self-cleavage": 0.03}
{"variant": "G2U G7U C15U A25C G44U", "self-cleavage": 0.1}
{"variant": "G2U G21C G27U", "self-cleavage": 0.08}
{"variant": "G2U G7A A25G", "self-cleavage": 0.02}
{"variant": "G2U G19U A24C", "self-cleavage": 0.02}
{"variant": "G2U C13G G30A", "self-cleavage": 0.05}
{"variant": "G2U G7A G35U G44C", "self-cleavage": 0.3}
{"variant": "G2U C10U A26C G27A", "self-cleavage": 0.02}
{"variant": "G2U G7A U34G", "self-cleavage": 0.01}
{"variant": "G2U C15U C37A G44A", "self-cleavage": 0.08}
{"variant": "G2U G7A C18A G19U G21C G36U G40U", "self-cleavage": 0.07}
{"variant": "G2U G7U C15A G44C", "self-cleavage": 0.11}
{"variant": "G2U C3A A41U", "self-cleavage": 0.27}
{"variant": "G2U C8G A11U A26C", "self-cleavage": 0.06}
{"variant": "G2U C8A G27A C42U", "self-cleavage": 0.04}
{"variant": "G2U G7U A41C", "self-cleavage": 0.02}
{"variant": "G2U C8A U9G C18U G30A A39C A41U", "self-cleavage": 0.01}
{"variant": "G2U G21C C23G", "self-cleavage": 0.07}
{"variant": "G2U C3G A14C A16U", "self-cleavage": 0.02}
{"variant": "G2U G5U U43C C45U", "self-cleavage": 0.02}
{"variant": "G2U C3A A6U U20G G29C C37A", "self-cleavage": 0.03}
{"variant": "G2U G19A C31U G40C", "self-cleavage": 0.01}
{"variant": "G2U C3A C13A C15U A26C", "self-cleavage": 0.11}
{"variant": "G2U C3A G21C A39U", "self-cleavage": 0.07}
{"variant": "G2U C3U G40A", "self-cleavage": 0.04}
{"variant": "G2U G7A U20A C46U", "self-cleavage": 0.02}
{"variant": "G2U G21U C31A U32C G36U", "self-cleavage": 0.02}
{"variant": "G2U G7C A11U A16C", "self-cleavage": 0.05}
{"variant": "G2U G17U G29U C42A", "self-cleavage": 0}
{"variant": "G2U C13U U34A G44A", "self-cleavage": 0.09}
{"variant": "G2U C10A A14C", "self-cleavage": 0.02}
{"variant": "G2U C13U U20A A25G", "self-cleavage": 0.03}
{"variant": "G2U C23U U34C C37G", "self-cleavage": 0.06}
{"variant": "G2U C8G C13U G30A", "self-cleavage": 0.07}
{"variant": "G2U C18A A26C G27A", "self-cleavage": 0.12}
{"variant": "G2U G5A G7A A26G G29C", "self-cleavage": 0.15}
